# Measured values published in the RNAGym collection of RNA variant scans (doi:10.7554/elife.90254).
# Read counts are not given, so values of variants with three or more changes are uncertain.
# B1: LINE1-full (parent)
# chain: UACGUAGGUGGUUUUCCCCUGAUAGUGCUAAGGGGGCCUGGAAGUUUGGACUGGGCAGAGCUCAACACAGCGUGGCAAAGUGGCUGUGGCUAGACUGCCUCUCUGGAUUCCUCGUCACUCAGCAGGGCAUCUCUGAGAGAAAUGCC
# Variants of: B1
# Experiment: self-cleavage, relative activity (ratio to wild type); higher = more cleavage; in vitro, sequencing; the parent is a self-cleaving ribozyme
row,Variant,self-cleavage
1,UACGUAGGUGGCUUUCCCCUGAUAGUGCUACGGGGGCCUGGAAGUUAGGACUGGGCAGGGCUCAACACAGCGUGGCAAAGUGGCUGUGGCUAGACUGCCUCUCUGGAUUCCUCGUCACUCAGCAGGGCAUCUCUGAGAGAAAUGCC [U12C A31C U47A A59G],0.31
2,UACGUAGGUGGUUUCCCCCUGAUAGUGCUAAGGGGGCCUGGAAGUUUGGACUGGGCAGAGCUCAACACGGCGUGGCAAAGUGGCUGUGGCUAGACUGCCUCUCUGGAUUCCUCGUCACUCAGCAGGGCUUCUCUGAGAGAGAUGCC [U15C A69G A129U A141G],0.3
3,UACGCAGGUGGUUUUCCCCUGAUAGUGCUAAGGGGGCCUGGAAGUUUGGACUGGGCAGAGCUCAACACAGCGUGGCAGAGUGGCUGUGGCUAGACUGCCUCUCUGGAUUCCUCGUCACUCAGCAGGGCAUCUCUGAGAGAAACGCC [U5C A78G U143C],0.79
4,UACGUAGGUGGUCUUCCCCUGAUAGUGCUAAGGGGGCCUGGAAGUUAGGACUGGGCAGAGCUCAACACAGCGCGGCAAAGUGGCUGUGGCUAGACUGCCUCUCUGGAUUCCUUGUCACUCAGCAGGGCAUCUCUGGGAGAGAUGCC [U13C U47A U73C C113U A136G A141G],1.63
5,UACGUAGGUGGUUUUCCCCUGAAAGUGCUAAGGGGGCCUGGAGGUUUGGACUGGGCAGAGCUCAACACAGCGUGGCAAAGUGGCUGUGGCUAGACUGCCUCUCUGGGUUCCUCGUCACUCAGCAGGGCAUCUCUGAGAGAAAUGCC [U23A A43G A107G],2.45
6,UACGUAGGUGGUUUUCCCCUGAUGGUGCUGAGGGGGCCUGGAGGUUUGGACUGGGCAGAGCUCAACACAGCGUGGCAAAGUGGCUGUGGCUAGACUGCCUCUCUGGAUUCCUCGUCACACAGCAGGGCAUCUCUGAGAGAAAUGCC [A24G A30G A43G U119A],1.62
7,UACGUAGGUGGUUUUCCCCUGAUAGUGCUAAGGGGGCCUGGAAGUUUUGACUGGGCAGAGCUCAACACAGCGUGGCAAAGUUGCUGUGGCUAGACUGCCUCUCUGGAUUCCUCGUCACUCAGCAGGGCAUCUCUGCGAGAAGUGCC [G48U G82U A136C A142G],1.22
8,UACGUAGGUGCUUUCCCCCUGAUUGUGCUAAGGGGGCCUGGAAGUUUGGACUGGGCAGAGCCCAACACAGCGUGGCAAAGUGGCUGUGGCUAGACUGCCUCUCUGGAUUCCUCGUCACUCAGCAGGGCAUCCCUGAGAGAAAUGCC [G11C U15C A24U U62C U132C],0.18
9,UACGUAGGUGGUUUUCCCCUGAUAGUGCUAAGGGGGCCUGGAAGUUUGGACUGGGCAGAGCUCAACACAGCGAGGCAAAGUGGCUGUGGCUAGACUGCCUCUCUGGAUUCCUCGUCGCUCAGCAGGGCAUCUCUGAGAGGAAUGCC [U73A A117G A140G],0.88
10,UACGUAGGUGGUUUUCCCCUGGUAGUGCUAAGGGGGCCUGGAGGUUUGGACUGGGCAGAGCUCAACACGGCGUGGCAAAGUGGCUGUGGCUAGACUGCCUCUCUGGAUUCCUCGUCACUCAGCAGGGCAUCUCUGAGAGAAAUGCC [A22G A43G A69G],0.51
11,UACGUAGGUGGUUUUCCCCUGAUAGUGCUAAGGGGGCCUGGAAGUUUGGACUGGGCAGGGCUCAACACAGCGUGGCAAAGUGGCUGUGGCUAGACUGCCUCUCUGGAUUCCUCGUCACUCUGCAGGGCAUCUCUGUGAGAAAUGCC [A59G A121U A136U],0.07
12,UACAUAGGUGGUUUUCCCCUGAUAGUGCUAAGGGGGCCUGGAAGUCUGGACUGGGCAGAGCUCACCACAGCAUGGCAAAGUGGCUGUGGCUAGACUGCCUCUCUGGAUUCCUCGUCACUCAGCAGGGCAUCUCUGAGAGAAAUGCC [G4A U46C A65C G72A],0.04
13,UACGUAGGUGGUCUUCCCCUGAUAGUGCUAAGGGGGCCUGGAAGUUUGGACUGGGCAGAGCUCAACACAGCGUGGCAAAGUGGUUGUGGCUAGACUGCCUCUCUGGAUUCCUCGUCUCUCAGCAGGGCACCUCUGAGAGAAAUGCC [U13C C84U A117U U130C],0.06
14,UACGUAGGUGGCUUUCCCCUGAUAGUGCUAAGGGGGCCUGGAAGUUAGGACUGGGCAGAGCUCAACACAGCGUGGCAAAGUGGCUGUGGCUAGACUGCCUCUCUGGAUUCCUCGUCACUCAGCAGGGCAUCUCUGAGAGUAAUGCC [U12C U47A A140U],1.31
15,CACGUAGGUGGUUUUCCCCUGAUAGUGCUAAGGGGGCCUGGAAGUUUGGACUGGUCAGAGCUCAACACAGCGUGGCAAAGUGGCUGUGGCUAGACAGCCUCUCUGGAUUCCUCGCCACUCAGCAGGGCAUCUCUGAGAGAAAUGCC [U1C G55U U96A U115C],0.03
16,UACGUAGGUGGUUUUCCCCUGAUAGUGCUAAGGGGGGCUGGAAGUUUGGACUGGGCAGAGCUCAACACAGCGUGGCAAAGUGGCUGUGGCUAGACUGCCUCUCCGGAUUCCUCGUCACUCAGCAGGGCAUCUCUGAGAGAAGUGCC [C37G U104C A142G],1.05
17,UACGUAGGUGGUUAUCCCCUGAUAGUGCUAAGGGGGCCUGGAAGUUCGGACUGAGCAGAGCUCAACACAGCGUAGCAAAGUGGCUGUGGCUAGACUGCCUCUCUGGAUUCCUCGUCACUCAGCAGGGCAUCUCUGAGAGAAAUGCC [U14A U47C G54A G74A],1.01
18,UGCGUAGGUGGUUUUCCCCUGAUAGUGCUAAGGGGGCCUGGAAGUUUGGACUGGGCAGAGCUCAACACAGCGUGGCAAAGUGGCCGUGGCUAGACUGCCUCUCUGGAUUCCCCGUCACUCAGCAGGGCAUCUCUGAGAGAAAUGCC [A2G U85C U112C],0.3
19,UACGUAGGUGGCUUUCCCCUGAUAGUGCUAAGGGGGCCUGGAAGUUUGGACUGGGCAGAGCUCAACACAGCGAGGCAAGGUGGCUGUGGCUAGACUGCCUCUCUGGAUUCCUCGUCACUCAGCAGGGCAUCUCUGAGAGAAAUGCC [U12C U73A A79G],0.92
20,UACGUAGGUGGUUUUCCCCUGAUAGUGCUAAGGGGGCCUGGAAGUUUGGACUGGGCAGAGCUCAACACAGCGUGGCAAAGUGGCUGUGGCUAGACUGCCUCUCUGGAUUCCCCGUCACUCAGCAGGUCCUCUCUGAGAGAAAUGCC [U112C G127U A129C],1.14

row,Variant,self-cleavage
1,UACGUAGGUGGUUUUCCCCUGAUAGUGCUAAGGGGGCCUGGAAGUCUGGACUGGGCGGAGCUCAACACAGCGUGGCAAAGUGGCUGUGGCUGGACUGCCUCUCUGGAUUCCUCGUCACUCAGCAGGGCAUCUCUGAGAGUAAUGCC [U46C A57G A92G A140U],0
2,UACGUAGGUGGCUUUCCCCUGAUAGUGCUAAGGGGGCCUGGAAGUUUGGACUGGGCAGAACUCAACACAGCGUGGCAAAGUGGCUGCGGCUAGACUGCCUCUCUGGAUUCCUCGUCACUCAGCAGGGCAUCUCUGAGAGAAAUGCC [U12C G60A U87C],0.2
3,UACGUAGGUGGUUUUCCCUUGAUAGUGCUAAGGGGGCCUGGAAGCUUGGACUGGGCAGAGCUCAACGCAGCGUGGCAAAGUGGCUGUGGCUAGACUGCCUCUCUGGAUUCCUCGUCACUCAGCAGGGCGUCUCUGAGAGAAAUGCC [C19U U45C A67G A129G],0
4,UACGUAGGUGGUUUUCCCCUGAUAGUGCUAAGGGGGCCCGGAAGUUUGGACUGGGCAGUGCUCAGCGCAGCGUGGCAAAGUGACUGUGGCUAGACUGCCUCUCUGGAUUCCUCGUCACUCAGCAGGACAUCUCUGAGAGUAAUGCC [U39C A59U A65G A67G G83A G127A A140U],0.09
5,UACGUAGGUGGUUUUCCCCUGAUAGUGCUAAGGGGGCCUGGAAGUUUGGACUGGGCAGAGCUCGACACAGCGUGGCAAAGUGGCUGUGGCUAGACUGCCUCUCUGGAUUCCUCGUCACUCAGCAGGGCUUCUCUGAGGGAAAUGCC [A64G A129U A138G],0.31
6,UACGUAGGUGGUUUUCCCCUGAUAGUGCUAAGGGGGCCUGGAAGUUAGGACUGGGCAGAGCUCAACACAGCGUGGCAAAGUGGCUGUGGCUAGACUGCCCCUCUGGAUUCCUCGUCACUCAGCAGGGCGUCUCUGAGAGAAAUGCC [U47A U100C A129G],0.49
7,UACGUUGGUGGUUUUCCCCUGAUAGUGCUAAAGGGGCCUGGAAGUUUGGACUGGGCAGAGCUCAACACUGCGUGGCAAAGUGGCUGUGGCUAGACUGCCUCUCUGGAUUCCUCGUCACUCAGCAGGGCAUCUCUGAGAGAAAUGCC [A6U G32A A69U],0.08
8,UACGUAGGUGGAUUUCCCCUGAUAGUGCUAAGGGAGCCUGGAAGUUUGGACUGGGCAGAGCUCAACACAGCGUGGCAAAGUGGCUGUGGCUAGACUGCCUCUCUGGAUUCCUCGUCACUCAGCAGGGCAUCUCUGAGGGAAAUGCC [U12A G35A A138G],1.22
9,UACGUAGGUGGCUUUCCCCCGAUAGUGCUAAGGGGGCCUGGAAGUUUGGACUGGGCAGGGCUCAACACAGCGUGGCGUAGUGGCUGUGGCUAGACUGCCACUCUGGAUUCCUCGUCACUCAGCAGGGCAUCUCUGAGAGAGAUGCC [U12C U20C A59G A77G A78U U100A A141G],0
10,UACGUAGGUGGUUUUCCUCUGAUAGUGCUAAGGGGGCCUGGAAGUUUGGACUGGGCGGAGCUCAACACAGCGUGGCAAAGUGGCUGUGGCUAGACUGCCUCUCUGGAUACCUCGUCACUCAGCAGGGCAACUCUGAGAGGAAUGCC [C18U A57G U109A U130A A140G],0.66
11,UACGUAGGUGGUUUUCCCCUGAUAGUGCUAAGGGGGCCUGGAAGUUUGGACUGGGCAGAGCUCAACACAGAGUGGCAAAGUGGCUGUGGCUAGACUGCCUCUCUGGAUUCCUCGUCACUCUGCAGGGCGUCUCUGAGAGAAAUGCC [C71A A121U A129G],0.22
12,UACGUAGGUGGUUUUCCCCCGAUAGUGCUAAGGGGGCCUGGAAGUUUGGACUGGGCAGAGCUCAACACAGCGUGGCAAGGUGGCUGUGGCUAGACUGCCUCUCUGGAUUCCUCGUCACUCAGCAGGGCAUCUCUGGGAGAAAUGCC [U20C A79G A136G],0.92
13,UACGUAGGUGGUUUUCCCCUGAUAGUGCUAAGGGGGCCUGGAAGUUUGGACUGGGCAGGGCUCAACACAGCGUGGCAAAAUGGCUGUGGCUAGACUGCCUCUCUGGAUUCCCCGUCACUCAGCAGGGCAUCUCUGAGAGAAAUGCC [A59G G80A U112C],0.12
14,UAUGUAGGUGGUUUUCCCCUGAUAGUGCUAAGGGGGCCUGGAAGUUUGGACUGGGCAGAGCUCAACACUGCGUGGCAAAGUGGCUGUGGCUAGGCUGCCUCUCUGGAUUCCUCGCCACUCAGCAGGGCAUCUCUGAGAGAAAUGCC [C3U A69U A94G U115C],0
15,UACGUAGGAGGUUUUCCCCUGGUAGUGCUAAGGGGGCCUGGAAGUUUGGACUGGGCAGAGCUCAACACAGCGUGGCAAAGUGGCUGUGGCUAGACCCCCUCUCUGGAUCCCUCGUCACUCAGCAGGGCAUCUCUGAGAGAAAUGCC [U9A A22G U96C G97C U109C],0.25
16,UACGUAGGUGGUUUUCCCCUGAUAGUGCUAAGGGGGCCUGGAAGUUUGGACUGGGCAGAGCUCAACGCAGCGUGGCAGAGUGGCUGUGGAUAGACUGCCUCUCUGGAUUCCUCGUCACUCAGCAGGGCAUCUCUGAGAGAAAUGCC [A67G A78G C90A],0.05
17,CACGUAGGUGGUUUUCCCCUGAUAGUGCUAAGGGGGCCUGGAGGUUUGGACUGGGCAGAGCCCAACACAGCGUGGCAAAGUGGCUGUGGCUAGACUGCCUCUCUGGAUUCCCCGUCACUCAGCAGGGCAUUUCUGAGAGAAAUGCC [U1C A43G U62C U112C C131U],0.21
18,UACGUAGGCGGUUUUCCCCUGAUAGUGCUAAGGGGGCCUGGAAGUUUGGACUGGGCAGAGCUCAACACAGCGUGGCAAAGUGGCUGUGGCUAGACUGCCUCUCUGGAUUCCUCGUCACUCAGCAGGGCGUCACUGAGAGAAAUGCC [U9C A129G U132A],2.73
19,UACGUAGGUGGUUUUCCCUUGAUAGCGCUAAGGGGGCCUGGAUGUUUGGACUGGGCAGAGCUCAACACUGCGUGGCAAAGUGGCUGUGGCUAGACUGCCUCUCUGGAUUCCUCGUCACUCAGCAGGGCAUCUCUGAGAGAAAUGCC [C19U U26C A43U A69U],0.06
